Data: PubChem BioAssay (NCATS)
Inconclusive results, whose numbers are uncertain, are shown with a selection of clear calls. For part of these data: Potencies of inconclusive entries are doubtful fits and often do not repeat. Activity calls are given as the source filed them. Calls follow the shape of the dose curve; as a rule, active = well fitted curve in the direction sought with a large enough effect; inconclusive = small, poorly fitted or top-dose-only effect, or another doubt; inactive = no such curve, though single readings can be large; an effect the other way counts as inactive or inconclusive.

Columns and labels:
[1] = test system: Zika virus NS2B-NS3 protease (linked construct); assay: Primary screen NINDS Rhodamine qHTS for Zika virus inhibitors (AID 1347160); also: nearly all actives have a fitted effect of over 55% in size; also: potency is read from the fitted curve at half-maximal effect
Method in brief: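 Each compound, titrated, sat 15 min with 25 nM linked protease before 1.5 microM Rhodamine110 substrate went in. Fluorescence gain over the next 15 min, in pH 8.0 Tris with Tween 20, gave Hill-fitted curves.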

[2] = OV-KATE Cancer Cell Toxicity qHTS against the NCATS CANVASS Library (AID 1347345); also: potency is read from the fitted curve at half-maximal effect
Method in brief: (§1)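 Per well, 1000 cells; exposure 72 h with compound at 11 final concentrations; readout CellTiter-Glo luminescence.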

[3] = HPAF-II Cancer Cell Toxicity qHTS against the NCATS CANVASS Library (AID 1347346); also: potency is read from the fitted curve at half-maximal effect; nearly all actives have a fitted effect of over 55% in size
Method in brief: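 Cytotoxicity read-out was CellTiter-Glo luminescence after 72 h at 37 degrees C exposure of HPAF-II cells (1000/well) to compounds in an 11-point titration.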

[4] = HEK-293 Cancer Cell Toxicity qHTS against the NCATS CANVASS Library (AID 1347355); also: potency is read from the fitted curve at half-maximal effect; nearly all actives have a fitted effect of over 65% in size
Method in brief: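 Toxicity was measured as CellTiter-Glo luminescence after 72 h exposure to an 11-point compound series. Compound was added to 1000 cells/well 4 h after seeding.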

[5] = qHTS for Hypoxia signaling pathway (HIF-1) antagonists against the NCATS CANVASS Library (AID 1347374); also: potency is read from the fitted curve at half-maximal effect; nearly all actives have a fitted effect of over 60% in size
Method in brief: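 Antagonism scored as loss of CoCl2-driven (60 uM stock added) HRE beta-lactamase signal, read by CCF4 FRET at 460/530 nm. Compounds were tested in an 11-point series on ME-180 reporter cells for 17 hrs at 37C, with parallel CellTiter-Glo cytotoxicity.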

[6] = qHTS for Activators of p53 Stress Response Pathway screened against the NCATS CANVASS Library (AID 1347388); also: potency is read from the fitted curve at half-maximal effect
Method in brief: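 Beta-lactamase reporter driven by p53 response elements in HCT-116 cells, read as the 460 nm/530 nm emission ratio after CCF4 loading, following 16 h of exposure to an 11-point series. Cell viability was measured in the same wells by CellTiter-Glo luminescence.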

[7] = Secretion counterscreen for inhibitors of the SERCaMP assay screened against the NCATS CANVASS Library (AID 1347390); settings: SH-SY5Y constitutive GLuc secretion, luminescence, 20 h; activity change, negative = inhibition: at 76.6 µM (top of the series);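 also: light from luciferase secreted into medium read as a measure of general secretion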; also: potency is read from the fitted curve at half-maximal effect
Method in brief: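 SH-SY5Y-GLuc STOP cells; 4 h attach; cpds 0.001 - 77 uM (qHTS, 11 pts), 20 h 37C/5% CO2; coelenterazine in glow buffer; luminescence, 5 s exposure.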

[8] = qHTS for activators of Nrf2/ARE signaling pathway screened against the NCATS CANVASS Library (AID 1347391); also: nearly all actives have a fitted effect of over 60% in size
Method in brief: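 Eleven-point qHTS, 16 h treatment of HepG2 cells carrying an ARE-driven beta-lactamase reporter; CCF4 ratio read (405 nm excitation, 460 and 530 nm emission), with CellTiter-Glo ATP luminescence for viability.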

[9] = qHTS for inhibitors of ER calcium dysfunction: SERCaMP assay screened against the NCATS CANVASS Library (AID 1347393); settings: SH-SY5Y GLuc-SERCaMP (Gaussia luciferase released on ER calcium loss) secretion, thapsigargin, luminescence; activity change, negative = inhibition: at 76.6 µM (top of the series) unless noted; also: nearly all actives have a fitted effect of over 40% in size; also: potency is read from the fitted curve at half-maximal effect;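 as to activity change, negative = inhibition: lower secreted reporter signal means inhibitor of ER calcium depletion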
Method in brief: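 Thapsigargin-induced ER calcium depletion drives GLuc-SERCaMP secretion from SH-SY5Y cells; compounds given 16 h beforehand were scored by lowered coelenterazine luminescence after 4 h challenge.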

[10] = UWB1.289 Cancer Cell Toxicity qHTS against the NCATS CANVASS Library (AID 1347347); also: potency is read from the fitted curve at half-maximal effect; nearly all actives have a fitted effect of over 60% in size
Method in brief: as §1

[11] = OV-SAHO Cancer Cell Toxicity qHTS against the NCATS CANVASS Library (AID 1347348); settings: OV-SAHO viability, CellTiter-Glo luminescence, 72 h; series mostly up to 38.3 µM; also: potency is read from the fitted curve at half-maximal effect; nearly all actives have a fitted effect of over 55% in size
Method in brief: as §1

[12] = Panc-1005 Cancer Cell Toxicity qHTS against the NCATS CANVASS Library (AID 1347349); also: potency is read from the fitted curve at half-maximal effect; nearly all actives have a fitted effect of over 60% in size
Method in brief: as §1

[13] = U-118MG Cancer Cell Toxicity qHTS against the NCATS CANVASS Library (AID 1347351); also: potency is read from the fitted curve at half-maximal effect
Method in brief: as §1

[14] = A2780 Cisplatin Sensitive Ovarian Cancer Cell Toxicity qHTS against the NCATS CANVASS Library (AID 1347353)
Method in brief: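 Cisplatin-sensitive A2780 ovarian cells (750/well) received compound in 11 concentrations, and were incubated 72 h at 37 °C. ATP content was measured by ATPLite luminescence; bortezomib served as control.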

[15] = KB-8-5-11 Cancer Cell Toxicity qHTS against the NCATS CANVASS Library (AID 1347364); settings: activity change, negative = toxicity: at 46.1 µM (top of the series); also: potency is read from the fitted curve at half-maximal effect; nearly all actives have a fitted effect of over 75% in size
Method in brief: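 Viability read as CellTiter-Glo luminescence after 72 h at 37 °C, 5% CO2. 11-point compound series on 500 KB-8-5-11 cells/well in DMEM/10% FBS. Follow-up plating included 1 uM tariquidar in the medium.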

[16] = qHTS for inhibitors of Wild type Zika virus screened against the NCATS CANVASS Library (AID 1347396);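 also: ATP luminescence of surviving cells so rescue from viral cell killing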
Method in brief: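 Vero 766 (African green monkey) cells, 1000 per well, attached overnight, then compounds were added in an 11-point series before wild-type Zika virus infection. After 72 h at 37C, cell viability was read as CellTiter Glo luminescence.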

[17] = Viability qHTS for inhibitors of the SERCaMP assay screened against the NCATS CANVASS Library (AID 1347400); also: potency is read from the fitted curve at half-maximal effect; nearly all actives have a fitted effect of over 70% in size
Method in brief: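 CellTiter-Glo luminescence measured cytotoxicity after 48 h at 37C of compound treatment (11-point series). Cells were SH-SY5Y-GLuc SERCaMP MJH297 derivatives, seeded at 1000 per well 4 h beforehand.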

Measured: Potency
Tags tell the direction and shape of the fitted curve.

C[C@H](c1cnc(N)[nH]1)c1ccc(O)c2[nH]cc(-c3cnc(-c4c[nH]c5ccccc45)c(=O)[nH]3)c12
inconclusive: [1] 4.93 µM [inhibitor, full curve] | [3] 29.8 µM [cytotoxic, single point] | [4] 37.2 µM [cytotoxic, partial curve, poor fit] | [5] 11.8 µM [inhibitor, partial curve] | [6] 13.2 µM [activator, partial curve] | [9] 34.3 µM [inhibitor, single point]
inactive: [2] | [7] | [8]

C=C1CCC(OC(C)=O)C2(C)CC3(O)OC(=O)C(C)=C3CC12 (centres undefined)
inactive: [1]

O[C@H]1C=C2[C@H]3CN(Cc4cc5c(cc43)OCO5)[C@H]2C[C@@H]1O
inactive: [6] | [9] | [16]
active: [14] 9.35 µM | [15] 10.5 µM | [7] 38.4 µM
inconclusive: [1] 49.3 µM [inhibitor, single point] | [2] 13.3 µM [cytotoxic, partial curve] | [3] 21.1 µM [cytotoxic, single point] | [10] 13.3 µM [cytotoxic, partial curve] | [11] 8.38 µM [cytotoxic, partial curve] | [12] 13.3 µM [cytotoxic, partial curve] | [13] 7.49 µM [cytotoxic, partial curve] | [17] 17 µM [cytotoxic, partial curve]
